Publication PMC12040169 (PLOS Biology, 2025)
This is one part of the list.

Each compound was assayed on T1, C. trachomatis L2/434/Bu expressing GFP (CTL2-GFP). Conditions: total inclusion area; 28.5 h, 10 µM; inhibitor.
T1 construct: L2/434/Bu GFP intracellular growth in HeLa cells
Parameters: species or system HeLa; C. trachomatis total inclusion area by high-content imaging, normalised to DMSO
Outline: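 Post-fluorescence-read fixation, DNA staining with Hoechst and high-content imaging; GFP inclusion area and number per well, and nuclei counts, used as proxies for bacterial growth and host viability.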
In the case of `c1ccc(OCCSc2nc3ccccc3nc2N2CCCC2)cc1` [CBK103694], the “% of control remaining” value is reported as 91.8365. In the case of `O=C(O)c1cccc(N2C(=O)C3C4C=CC(C3C2=O)C2C(=O)N(c3cccc(C(=O)O)c3)C(=O)C42)c1` (stereo not drawn) [CBK261495], the “% of control remaining” value is reported as 87.8032. `COc1cc(Nc2cncc(-c3ccc(N)cc3)n2)cc(OC)c1OC` [CBK065642] was tested, and the “% of control remaining” value was 30.9501. In the case of `O=C(NC1(c2ccc(F)cc2)CCCC1)c1cnn2cccnc12` [CBK283612], the “% of control remaining” value is reported as 86.7896. For `CCC(CN1CCOCC1)NC(=O)Cc1coc2cc(C)cc(C)c12` (stereo not drawn) [CBK282812], the “% of control remaining” value was 79.4541. With `CC(NC(=O)CC1(N2CCOCC2)CCCC1)c1cccc(C#N)c1` (stereo not drawn) [CBK305320] the “% of control remaining” value was 42.0192. In the case of `Cc1ccc(S(=O)(=O)N2CCOCC2)cc1C(=O)Oc1cccc2cccnc12` [CBK269726], the “% of control remaining” value is reported as 96.3897. For `CCOC(=O)Cn1nc(CC)n2c(cc3sccc32)c1=O` [CBK284073], the “% of control remaining” value was 96.5541. With `CC1CCCN(Cc2c(C3CCOCC3)[nH]c3ncccc23)C1` (stereo not drawn) [CBK284687] the “% of control remaining” value was 94.9347. `CN(C)CCn1c(=O)[nH]c2ncc(-c3cc(C(F)(F)F)cc(C(F)(F)F)c3)nc21` [CBK065028] was tested, and the “% of control remaining” value was 103.589. For `CC(Oc1ccc(-c2ccccc2)cc1)C(=O)Nc1ccc(S(N)(=O)=O)cc1` (stereo not drawn) [CBK267979], the “% of control remaining” value was 92.0399. For `COc1cc(Br)c(/C=C(/C#N)C(=O)Nc2ccc(O)cc2)cc1OC` [CBK262733], the “% of control remaining” value was 86.302. For `O=C(NCC1Cc2ccccc2O1)c1cccc(NC(=O)c2ccco2)c1` (stereo not drawn) [CBK298302], the “% of control remaining” value was 72.8907. With `COc1cc(CNc2ncc(-c3ccc(N4CCOCC4)cc3)n3ccnc23)cc(OC)c1OC` [CBK091219] the “% of control remaining” value was 93.2449. For `CC(=O)N(C)c1nc(-c2cccc(N(C)C)c2)ccc1C(=O)N(C)C` [CBK076555], the “% of control remaining” value was 114.422. In the case of `Cc1cnc2c(c1)cc(C1CCOCC1)n2CC(=O)NC1CCCC1` [CBK284755], the “% of control remaining” value is reported as 104.078. In the case of `COc1cccc(Nc2cc(-c3ccco3)ncn2)c1` [CBK090740], the “% of control remaining” value is reported as 87.6851. For `O=C(Nc1ccccc1)C(N1CCCCC1)N1CCCCC1` [CBK263425], the “% of control remaining” value was 102.388. With `CCCC(=O)NCCn1ncc(-c2ccncc2)c1C1CC1` [CBK282116] the “% of control remaining” value was 103.855. `O/N=C1/CCCCCC1NO` (stereo not drawn) [CBK264368A] was tested, and the “% of control remaining” value was 115.559. With `CC(C)CN1CC(C(=O)N(C)CC2OCCc3ccccc32)CC1=O` (stereo not drawn) [CBK282093] the “% of control remaining” value was 74.6237. In the case of `COc1ncc(-c2cncc(N3CCN(c4ccc(OC)c(OC)c4)CC3)n2)c(OC)n1` [CBK065169], the “% of control remaining” value is reported as 80.0562. In the case of `COCCNC(=O)[C@@H](C)C1CC[C@@]2(C)CC[C@H](NS(C)(=O)=O)[C@@H](C)[C@@H]2[C@H]1O` (stereo partly drawn) [CBK289457], the “% of control remaining” value is reported as 108.54. With `O=C(CN1CCC(c2cncc(-c3cccc(C(F)(F)F)c3)n2)CC1)N1CCCC1` [CBK286152] the “% of control remaining” value was 94.1825. `O=C(NCc1ccccn1)c1ccc(NS(=O)(=O)c2cccc(Cl)c2)cc1` [CBK267249] was tested, and the “% of control remaining” value was 77.9544. With `O=C(CN1CCN(c2ccccc2)CC1)Nc1ccc([N+](=O)[O-])cc1C(=O)c1ccccc1` [CBK265799] the “% of control remaining” value was 101.814. `CCCCNC(=O)c1ccc2nc(CC)c(N(C)CCC(C)C)n2c1` [CBK145477] was tested, and the “% of control remaining” value was 98.2293. For `O=C(O)CCC(=O)NCc1ccc2c(c1)OCO2` [CBK286930], the “% of control remaining” value was 111.72. In the case of `COc1ccc(C2CCN(CC(=O)N3CCCC3)CC2)cc1` [CBK283561], the “% of control remaining” value is reported as 77.3045. `Cc1nn(CCCC(=O)Nc2sc3c(c2C#N)CCC(C(C)(C)C)C3)c(C)c1[N+](=O)[O-]` (stereo not drawn) [CBK268982] was tested, and the “% of control remaining” value was 89.9048. For `CCCC1=NN=C(c2cc(C(F)(F)F)ccc2C(F)(F)F)C1C(=O)OCC` (stereo not drawn) [CBK103527], the “% of control remaining” value was 21.5736. `COC(C)CN(C)C(=O)c1cc2cc(C)ccc2nc1C` (stereo not drawn) [CBK282036] was tested, and the “% of control remaining” value was 97.0343. In the case of `O=C(O)c1ccc(/C=N/NC(=O)C2COc3ccccc3O2)cc1` (stereo not drawn) [CBK261481], the “% of control remaining” value is reported as 112.704. For `Cc1oc2c(c1CC(=O)N(C)CCN(C)C)C(=O)CC(C)(C)C2` [CBK282171], the “% of control remaining” value was 80.6736. In the case of `CCOC(=O)c1cn([C@H](CO)CCSC)cc(Oc2ccccc2)c1=O` [CBK307349], the “% of control remaining” value is reported as 68.219. In the case of `Cc1ccc(C)c(NC(=O)CC2C(=O)N(c3ccccc3)C(=S)N2Cc2ccco2)c1` (stereo not drawn) [CBK267119], the “% of control remaining” value is reported as 102.658. In the case of `CNC(=O)C1(Cc2ccccc2-c2cccs2)CCN(C(=O)Cc2ccc(C)cc2)CC1` [CBK285697], the “% of control remaining” value is reported as 123.832. In the case of `CSc1ncc(C(=O)N2CCN3CCN(C)CC3C2)c(=O)[nH]1` (stereo not drawn) [CBK307677], the “% of control remaining” value is reported as 60.1281. With `COc1ccc(C(C)C)cc1-c1nccnc1N1CCCN(C)CC1` [CBK036677] the “% of control remaining” value was 84.6691. For `Cc1cc2ccccc2n2c(=O)n(Cc3cscn3)nc12` [CBK282381], the “% of control remaining” value was 63.6536. `O=S(=O)(c1c(F)cccc1F)N1CCN(Cc2ccc3c(c2)OCO3)CC1` [CBK074600] was tested, and the “% of control remaining” value was 86.856. In the case of `COc1cc2c(cc1OC)CN(C(=O)c1ccc3[nH]cnc3c1)CC2` [CBK295331], the “% of control remaining” value is reported as 10.5183. With `COC(=O)c1cc(Br)c(NC(=O)c2cccs2)cc1OC` [CBK066842] the “% of control remaining” value was 145.235. With `CC(=O)N1CCc2cc(Nc3ncnc4c3cnn4CCC#N)ccc21` [CBK305950] the “% of control remaining” value was 51.5331. For `COc1ccc(S(=O)(=O)n2ccn(C(c3ccccc3)c3ccccc3)c2=O)cc1OC` [CBK106621], the “% of control remaining” value was 89.1235. With `CCN1CCC2(CC1)NC(=O)Cc1ccccc12` [CBK039810] the “% of control remaining” value was 86.9862. `N#CCCn1cc(C(=O)N2CCCCC2)c(-c2cccc(Cl)c2)n1` [CBK306209] was tested, and the “% of control remaining” value was 70.0006. For `OCCNc1nc(Cl)nc(Nc2nc(-c3ccccc3)cs2)n1` [CBK261381], the “% of control remaining” value was 109.7. `CC1CCCCN1C(=O)c1ccc(-n2ccnc2)c(-n2cccc2)c1` (stereo not drawn) [CBK284832] was tested, and the “% of control remaining” value was 102.764. `O=C(NC(c1ccc(Cl)cc1)c1ccsc1)C1CCN(CCCN2C(=O)CC3CCCCC3C2=O)CC1` (stereo not drawn) [CBK147974] was tested, and the “% of control remaining” value was 100.661. With `O=C(O)C(c1c[nH]c2ccccc12)N1CCN(S(=O)(=O)c2ccccc2)CC1` (stereo not drawn) [CBK286643] the “% of control remaining” value was 83.2624. With `O=C(CSc1nc2ccccc2c(=O)n1-c1ccc(F)cc1)Nc1ccc(C(=O)O)cc1` [CBK296140] the “% of control remaining” value was 45.1605. In the case of `CC(=O)NC(c1nccs1)C1CCN(C(=O)C(C)(C)C)CC1` (stereo not drawn) [CBK284677], the “% of control remaining” value is reported as 87.6789. `CCCCCn1c(=O)c(C(=O)Nc2cccc(O)c2)c(O)c2ccccc21` [CBK291189] was tested, and the “% of control remaining” value was 81.1179. In the case of `COC(=O)[C@@H](C)NC(=O)[C@H]1CN(C(=O)c2cccnc2)CCN1C(=O)c1cccs1` [CBK289628], the “% of control remaining” value is reported as 102.033. With `CCOC(=O)c1sc2nc(C(C)N3CCCCC3)[nH]c(=O)c2c1C` (stereo not drawn) [CBK306078] the “% of control remaining” value was 67.9582. In the case of `Cc1cc2c(cc1C)OC1(C=C2)CCN(C(=O)N2CCOCC2)CC1` [CBK285314], the “% of control remaining” value is reported as 72.1443. For `NC(=O)CCN1CCCC2(CCN(C(=O)Cc3c[nH]c4ccccc34)C2)C1` (stereo not drawn) [CBK132041], the “% of control remaining” value was 99.8262. `CC(=O)NCCc1nc2cc(NC(=O)Nc3ccccc3)ccc2n1C` [CBK268216] was tested, and the “% of control remaining” value was 91.4469. With `CCCCC(c1cccnc1)N(C)C(=O)c1cccn(C)c1=O` (stereo not drawn) [CBK307496] the “% of control remaining” value was 82.8197. For `NS(=O)(=O)c1ccc(NC(=O)CSc2cccc3ccccc23)cc1` [CBK268987], the “% of control remaining” value was 106.265. In the case of `Cc1ccc(S(=O)(=O)Nc2nc(C)cs2)cc1` [CBK102326], the “% of control remaining” value is reported as 105.817. `COc1cc(/C=N/NC(=O)c2ccc([N+](=O)[O-])cc2)ccc1OC(C)=O` [CBK261348] was tested, and the “% of control remaining” value was 81.989. With `CC(C)NCC(O)COCc1ccc(Cl)cc1` (stereo not drawn) [CBK261406C] the “% of control remaining” value was 99.885. In the case of `CN(CC(=O)NNC(=O)c1ccc(C(C)(C)C)cc1)S(=O)(=O)c1cc(Cl)ccc1Cl` [CBK267376], the “% of control remaining” value is reported as 101.613. For `Cn1c(=O)c2c(nc(CN3CCCCC3)n2CCCO)n(C)c1=O` [CBK269280], the “% of control remaining” value was 103.615. With `Brc1ccc(CN2CCN(Cc3c[nH]c4ccccc34)CC2)cc1` [CBK027622] the “% of control remaining” value was 60.0014. `O=C(CC1NCCNC1=O)Nc1cccc(Cl)c1` (stereo not drawn) [CBK266454] was tested, and the “% of control remaining” value was 90.4877. In the case of `COc1cc(CNc2cncc(-c3cccc(C(=O)NCCO)c3)n2)cc(OC)c1OC` [CBK065421], the “% of control remaining” value is reported as 91.8325. `Cn1nccc1C(=O)N[C@H]1CCC[C@@H](c2c[nH]c3ccccc23)C1` [CBK285073] was tested, and the “% of control remaining” value was 117.307. With `Cc1nc2ccccc2nc1SCc1nc(N)nc(N2CCCCC2)n1` [CBK270218] the “% of control remaining” value was 109.032. With `Cc1ccc(-n2cc(-c3ccccc3)[nH]c2=O)cc1` [CBK288103] the “% of control remaining” value was 112.962. `O=C(O)C1C2C=CC(C2)C1C(=O)NCc1ccco1` (stereo not drawn) [CBK265453] was tested, and the “% of control remaining” value was 111.013. In the case of `CC(O)CNC(=O)c1cn2cc(-c3cccs3)n(CC3CC3)c(=O)c2n1` (stereo not drawn) [CBK307117], the “% of control remaining” value is reported as 49.7379. `O=C(Nc1ccc2n(c1=O)C[C@@H]1CNC[C@H]2C1)c1ccncc1` [CBK289177] was tested, and the “% of control remaining” value was 93.5253. With `CC(C)Nc1nccnc1Sc1ccccc1O` [CBK089492] the “% of control remaining” value was 94.0593. In the case of `O=C(c1cc(-c2cccc(Br)c2)nc2ccccc12)N1CCN(C/C=C/c2ccccc2)CC1` [CBK262633], the “% of control remaining” value is reported as 91.8084. In the case of `O=C(Nc1ccc2c(c1)OCO2)c1nccnc1-c1ccc(COc2ccccc2)cc1` [CBK050834], the “% of control remaining” value is reported as 95.9655.
